Measured values from paper PMC4336329 (PLoS ONE, 2015).
Among all 310,000 compounds or so, about 14,000 (4.5%) showed an effect of 50% or more. The effect is printed as a negative number. The list shows a part of the results.

What follows are compounds tested against human ether-à-go-go-related gene (hERG) potassium channel (human, UniProt Q12809) (assay: primary screen, population patch clamp on CHO cells stably expressing hERG).
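Further: peak tail current of the secondary pulse compared with the same well before compound.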

Chain of human ether-à-go-go-related gene (hERG) potassium channel (Q12809 whole entry, looked up): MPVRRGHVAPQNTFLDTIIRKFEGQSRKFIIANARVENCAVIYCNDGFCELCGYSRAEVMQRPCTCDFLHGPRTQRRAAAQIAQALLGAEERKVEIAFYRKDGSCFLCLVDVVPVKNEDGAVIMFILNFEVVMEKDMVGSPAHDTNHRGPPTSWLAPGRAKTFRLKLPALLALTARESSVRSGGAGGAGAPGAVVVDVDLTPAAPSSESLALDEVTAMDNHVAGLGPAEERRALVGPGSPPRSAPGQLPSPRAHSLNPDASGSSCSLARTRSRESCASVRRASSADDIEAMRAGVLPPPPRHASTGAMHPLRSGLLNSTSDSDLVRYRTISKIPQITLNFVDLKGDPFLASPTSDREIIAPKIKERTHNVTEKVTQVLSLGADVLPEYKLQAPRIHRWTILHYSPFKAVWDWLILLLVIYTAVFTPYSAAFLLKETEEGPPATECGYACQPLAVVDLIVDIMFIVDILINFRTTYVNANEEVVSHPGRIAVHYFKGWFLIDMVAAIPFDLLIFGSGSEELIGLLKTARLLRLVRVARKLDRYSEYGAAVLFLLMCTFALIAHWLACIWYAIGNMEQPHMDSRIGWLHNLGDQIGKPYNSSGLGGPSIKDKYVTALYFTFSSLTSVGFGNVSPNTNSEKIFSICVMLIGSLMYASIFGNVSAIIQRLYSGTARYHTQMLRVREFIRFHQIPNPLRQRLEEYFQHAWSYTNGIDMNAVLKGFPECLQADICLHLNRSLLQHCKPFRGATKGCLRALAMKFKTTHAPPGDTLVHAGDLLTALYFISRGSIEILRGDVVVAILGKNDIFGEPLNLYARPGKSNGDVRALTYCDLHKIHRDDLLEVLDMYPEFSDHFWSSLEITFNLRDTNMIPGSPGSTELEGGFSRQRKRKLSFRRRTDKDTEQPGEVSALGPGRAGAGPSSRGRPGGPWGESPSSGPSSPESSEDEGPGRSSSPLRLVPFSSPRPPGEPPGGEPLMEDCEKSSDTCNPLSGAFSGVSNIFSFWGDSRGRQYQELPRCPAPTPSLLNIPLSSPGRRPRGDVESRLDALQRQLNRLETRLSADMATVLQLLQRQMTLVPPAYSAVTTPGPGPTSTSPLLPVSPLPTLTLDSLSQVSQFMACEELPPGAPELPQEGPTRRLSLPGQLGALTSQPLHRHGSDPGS

| SMILES | hERG current change (%, negative = inhibition) at 10uM |
| --- | --- |
| CC(OC(=O)CN1C(=O)NC2(CCCC2)C1=O)C(=O)c1ccc(C(C)(C)C)cc1 (centres unmarked) | -28.7% |
| CCNC(=O)N1CCN(CCCC(c2ccc(F)cc2)c2ccc(F)cc2)CC1.Cl | -82.3% |
| O=C(CSc1nc2ccccc2c(=O)n1-c1ccccc1)N1CCCC1 | -3.59% |
| CCn1c(SCC(=O)Nc2nc3ccc(C)cc3s2)nc2c(c1=O)SC(C)C2 (centres unmarked) | -12.6% |
| CCC(Oc1ccc(Br)cc1Cl)C(=O)Nc1nnc(C2CC2)s1 (centres unmarked) | -4.12% |
| Oc1ccc(Nc2nc(Cl)nc(NCc3ccco3)n2)cc1 | -20% |
| O=C(CCC(=O)c1ccc(F)cc1)OCc1nnc(-c2ccc([N+](=O)[O-])cc2)o1 | -47% |
| COc1ccc(-c2cn3cccnc3n2)cc1NC(=O)c1cccs1 | -13% |
| O=C1CC(c2ccccc2)c2cc(O)ccc2O1 (centres unmarked) | 11.1% |
| O=C(NCc1ccc2c(c1)OCO2)c1cc2ccccc2o1 | -19.5% |
| CCOC(=O)C1CCN(CC(O)COc2ccc(C(=O)CC)cc2)CC1.Cl (centres unmarked) | -68.5% |
| COc1cccc(N2CCN(CC(=O)NC(C)c3ccccc3)CC2)c1 (centres unmarked) | -3.41% |
| O=C(O)c1nc(N2CCOCC2)nc(N2CCOCC2)n1 | -8.37% |
| Cn1ncc(C#N)c1NC(=O)C1CC(c2ccc(Cl)cc2)=NO1 (centres unmarked) | -8.44% |
| O=C(CCc1nc2sc3c(c2c(=O)[nH]1)CCCC3)Nc1ccccc1Cl | 7.93% |
| COCCNC(=S)N/N=C/c1c2ccccc2cc2ccccc12 | 15.5% |
| CC(=O)c1cccc(NC(=O)COC(=O)c2ccccc2C)c1 | -14.4% |
| O=c1[nH]c(=S)n(C2CC2)c(O)c1C=NCc1cccnc1 | -13.9% |
| O=S(=O)(Nc1nc2ccccc2s1)c1ccc(Cl)nc1 | 4.73% |
| CCS(=O)(=O)N1CCC(C(=O)NCCCN2CCC(Cc3ccccc3)CC2)CC1 | -65.5% |
| Cn1cccc1-c1cc(C(=O)N/N=C/c2cc(Br)ccc2O)[nH]n1 | 31.3% |
| COc1ccc(-c2csc(NC(=O)CN3C(=O)CCC3=O)n2)c(OC)c1 | -16.5% |
| Cn1c(=O)n(C)c2cc(C(=O)c3ccccc3)ccc21 | -1.74% |

| SMILES | hERG current change (%, negative = inhibition) at 10uM |
| --- | --- |
| O=C(CSc1nc2ccccc2s1)N/N=C/c1ccco1 | 11.5% |
| COc1ccc(N2CC(NC(=O)NC(C)(C)C)CC2=O)cc1 (centres unmarked) | 8.87% |
| Cn1c(N)c(C(=O)COC(=O)c2cc(-c3ccco3)nc3ccccc23)c(=O)n(Cc2ccccc2)c1=O | -6.06% |
| CSc1nc(N(C)C)nc(N(C#N)CCOC(C)=O)n1 | 3.77% |
| COc1ccc(C(=O)NCCc2nnc3ccc(SCC(=O)NCCc4ccc(OC)c(OC)c4)nn23)cc1 | 0.371% |
| Cc1ccc(S(=O)(=O)N2CCN(C(=O)COC(=O)c3ccc(O)cc3)CC2)c(C)c1 | 0.617% |
| Cc1cc(C)n(-c2nc3ccccc3c(=O)n2OC2CCCCC2)n1 | 2.59% |
| CCOC(=O)c1[nH]c2ccc(OC)cc2c1NC(=O)CCN1CCN(Cc2ccccc2)CC1 | -57.1% |
| Cc1cccc(CC(=O)NC2CCN(C)CC2)c1 | 9.22% |
| Cc1nn(-c2ccc(C(=O)O)cc2)c(C)c1Oc1ccccc1O.O=S(=O)(O)O | -3.2% |
| Cc1c(CCC(=O)NCCCCCC(=O)O)c(=O)oc2cc3occ(-c4ccccc4)c3cc12 | -9.41% |
| COc1ccc(CCN(C)Cc2c(O)ccc3ccccc23)cc1OC | -74% |
| COc1cc(C(=O)N/N=C/c2cccc(Oc3ccccc3)c2)ccc1O | -3.79% |
| c1cc(CNc2ccc3c(c2)OCCO3)ccn1 | 14.7% |
| CN(CC(=O)Nc1cccc(F)c1)C(=O)CSc1ccccc1 | -3.67% |
| COc1cccc(-n2nnc3c(=O)n(CC(=O)NCC4CCCO4)cnc32)c1 (centres unmarked) | 9.31% |
| CCN(CC(=O)NCCc1ccc(S(N)(=O)=O)cc1)Cc1nc2cc(OC)c(OC)cc2c(=O)[nH]1 | 0.804% |
| CC1(C)CC(NC(=O)c2ccc(-c3ccc([N+](=O)[O-])cc3)o2)CC(C)(C)N1 | -49% |
| CSCc1cc(N2CCCC2)nc(-c2ccccc2)n1 | -23.2% |
| CCOC(=O)C1=C(C)NC(=O)NC1c1ccccc1Cl (centres unmarked) | 1.8% |
| COc1cc2[nH]c(C(=O)N3CCC(Cc4ccccc4)CC3)cc2c(OC)c1OC | 22.4% |
| Cc1[nH]c2ccccc2c1CCN(Cc1cccnc1)C(=S)NC(C)(C)C | 15% |
| COc1ccc(N/N=C/c2c(O)n(-c3cccc(C)c3)c(=O)[nH]c2=O)cc1 | -1.72% |

| SMILES | hERG current change (%, negative = inhibition) at 10uM |
| --- | --- |
| Cc1nnc(SCC(=O)NNC(=O)c2ccco2)n1-c1cccc(Cl)c1 | 9.62% |
| CN(C)CCSc1nc(N)c2c3c(sc2n1)COC(C)(C)C3 | -10.7% |
| Cc1ccc(S(=O)(=O)Nc2ccc(C(=O)NCc3cccnc3)cc2)cc1 | 5.32% |
| Cc1ccc(C(CC(=O)NCc2ccco2)c2ccccc2)c(O)c1 (centres unmarked) | -0.367% |
| CC(=O)Nc1ccc(S(=O)(=O)Nc2cccc(-c3cn4c(n3)SCC4)c2)cc1 | 22.5% |
| CCOC(=O)c1sc2nccc(N(C)C)c2c1N=CNOC | -24.1% |
| Cc1nc(SCC(O)CCl)c([N+](=O)[O-])[nH]1 (centres unmarked) | 2.9% |
| COc1ccc(N2CCN(C(=O)c3c(C)nn(-c4ccccc4)c3C)CC2)cc1 | -9.14% |
| CN(C)CCCN=Cc1c(O)n(CCc2ccccc2)c(=O)[nH]c1=O | -0.99% |
| COc1ccc(C(=O)c2ccc3oc(-c4ccc(OC)cc4)c(C#CCCO)c3c2)cc1 | 19.5% |
| CN1C(=O)CC(C(=O)Nc2ccc(F)cc2)SC1=Nc1ccc2c(c1)OCO2 (centres unmarked) | 2.25% |
| Cn1ccnc1SCc1ccc([N+](=O)[O-])cc1 | -2.75% |
| Cc1cc(C)nc(NN2C(=O)C=CC2=O)n1 | 24.3% |
| Cc1cc(F)ccc1NCc1ccccc1[N+](=O)[O-] | -8.29% |
| Cn1cccc1CC(=O)N/N=C/c1cccc([N+](=O)[O-])c1 | 29.2% |
| O=C(O)[C@H](Cc1ccccc1)NC(=O)N1CCN(c2ccc(F)cc2)CC1 | -11.6% |
| O=C(CCCn1c(SCC(=O)c2ccc(O)c(O)c2)nc2ccccc2c1=O)NCC1CCCO1 (centres unmarked) | 6.99% |
| CC(=O)c1c(C)[nH]c(C(=O)COC(=O)c2cccc(S(=O)(=O)N(C)c3ccccc3)c2)c1C | 14.6% |
| S=c1[nH]nc(CSCc2ccccc2Cl)n1-c1ccccc1 | 0.868% |
| Cc1csc2nc(COC(=O)CNC(=O)c3ccc(Cl)cc3)cc(=O)n12 | -26.4% |
| COc1ccc(-c2csc(NC(=O)CN3C(=O)NC4(CCCC4)C3=O)n2)c(OC)c1 | -10.9% |
| O=C(O)c1ccccc1NC(=O)N1C[C@H]2C[C@@H](C1)c1cccc(=O)n1C2 | 3.86% |
| CCN(Cc1cc(=O)[nH]c2ccccc12)C(=O)c1ccc(C)cc1 | -2.45% |

| SMILES | hERG current change (%, negative = inhibition) at 10uM |
| --- | --- |
| Cc1cccc(NCc2ccc(O)c3ncccc23)c1 | 18.9% |
| O=C1CCC(C(=O)OC(C(=O)Nc2cc(Cl)cc(Cl)c2)c2ccccc2)=NN1 (centres unmarked) | 14.8% |
| COc1cccc(NC(=O)C2CCCCC2)c1 | -1.23% |
| O=C(Nc1ccc(CN2CCOCC2)cc1)c1ccc(Br)cc1 | 3.54% |
| Cc1ccc(S(=O)(=O)/C(C#N)=C/c2c(N3CCN(C)CC3)nc3ccccn3c2=O)cc1 | -59.1% |
| O=C(NCCc1ccccc1)c1nnc(CS(=O)(=O)c2ccccc2)o1 | -29.3% |
| Cc1cccc(C)c1NC(=O)CNc1ccccc1 | 5.02% |
| CCC(C)NC(=O)c1cnc2n(c1=O)CCS2 (centres unmarked) | 12.2% |
| CCOC(=O)NC(=O)c1cn(Nc2ccccc2)c(=O)[nH]c1=O | 12.9% |
| O=c1c2ccccc2nnn1CCN1CCOCC1 | 13.1% |
| CCOC(=O)CNNC(=O)Nc1ccc(Cl)c(Cl)c1 | 8.36% |
| CN(C(=O)c1ccc2ccccc2c1)c1ccccn1 | 10.7% |
| Cl.O=C(O)CNc1nc(-c2ccccc2)nc2ccccc12 | 20.4% |
| CC1(c2ccccc2)NC(=O)N(CC(=O)N2CCN(S(=O)(=O)c3cccs3)CC2)C1=O (centres unmarked) | 1.27% |
| O=[N+]([O-])c1ccccc1OC/C(=N\O)c1ccccc1 | 2.28% |
| COc1cccc(/C(C)=N/Nc2ccc(S(=O)(=O)N3CCCCC3)cn2)c1 | -16.1% |
| COc1ccc(C2C3=C(CCCC3=O)N(CC(=O)O)C3=C2C(=O)CCC3)cc1 | 17.2% |
| O=C(Cc1cccs1)NCc1ccc(Cl)cc1Cl | 5.57% |
| O=C(COC(=O)c1ccccc1NCCO)NNC(=O)c1cccs1 | -3.59% |
| NC(=O)c1ccc(-n2nnnc2SCc2ccc(F)cc2)cc1 | -6.81% |
